From PubChem BioAssay AID463173 (ICCB-Longwood Screening Facility, Harvard Medical School, 2010)
Among all 52,000 compounds or so, about 4,300 (8.3%) were called active. No stated cut-off is given here; in the data, active means survival mostly below about 52% (no sharp cut-off); inactive means mostly above about 56%. The list shows a part of the results.

Each molecule was assayed on DeltatarO mutant (assay: S. aureus survival, RN4220 and DeltatarO strains – OD600, teichoic acid synthesis inhibitors, primary screen (AID 463173)). Conditions: S. aureus RN4220 wild type/DeltatarO growth, OD600, 18 h, hits give low values, screened at 18.75 µg/mL (by protocol).
In the case of `CCc1noc2nc(C)n(CC(=O)O)c(=O)c12`, the survival is reported as inactive: 106%. With `CCOC(=O)Cn1cc2c(c1-c1ccc(Cl)cc1)c(=O)n(C)c(=O)n2C` the survival was inactive: 60%. In the case of `CN(C(=O)CSc1nc2ccccc2n1CC(=O)NCc1ccc(F)cc1)c1ccc(F)cc1`, the survival is reported as inactive: 128%. `CCOc1ccc(CNC(=O)c2ccc(NC(=O)c3nsc4ccccc34)cc2)cc1` was tested, and the survival was inactive: 79%. `Cc1c(C(=O)NCc2ccc(Cl)cc2)sc2nc3n(c(=O)c12)CCCC3` was tested, and the survival was inactive: 95%. `COc1ccc(-c2cc(C(=O)Nc3cc(C)ccc3O)no2)cc1OC` was tested, and the survival was inactive: 56%. With `CCn1c(=N)c(C(=O)NCc2cccnc2)cc2c(=O)n3cc(C)ccc3nc21` the survival was inactive: 52%. `O=S(=O)(NCC(c1ccco1)N1CCN(c2ccc(F)cc2)CC1)c1ccccc1` (stereo unspecified) was tested, and the survival was inactive: 61%. With `O=C(Cn1c(=O)sc2ccccc21)Nc1nc2c(s1)CCCC2` the survival was inactive: 75%. For `COc1ccc(-c2nc(CSCC(=O)NCCc3ccc(C)cc3)c(C)o2)cc1OC`, the survival was inactive: 56%. For `CCCCN(C(=O)c1cccc(S(=O)(=O)N2CCCCC2)c1)C1CCS(=O)(=O)C1` (stereo unspecified), the survival was inactive: 117%. In the case of `COCCCNC(=O)c1sc2ncccc2c1-n1cccc1`, the survival is reported as inactive: 75%. In the case of `COc1ccc(C2CC(=O)c3c([nH]c(C(=O)OC4CCC(C)CC4)c3C)C2)cc1OC` (stereo unspecified), the survival is reported as inactive: 78%. With `O=C(Nc1ccc(F)c(Cl)c1)N1CCN2CCCCC2C1` (stereo unspecified) the survival was inactive: 69%. For `Cc1cccc(-n2c(=O)c3c(c4cc(C)ccc4n3C)n(CC(=O)Nc3ccccc3C(F)(F)F)c2=O)c1`, the survival was inactive: 91%. In the case of `c1ccc(C(c2cccs2)c2c[nH]c3ccccc23)cc1` (stereo unspecified), the survival is reported as active: -1%. For `Cc1ccc(-c2noc(CN(C3CCCCC3)S(=O)(=O)c3ccc(Cl)cc3)n2)cc1`, the survival was inactive: 81%. For `COc1ccc(-c2nc3n(n2)C(c2ccccc2F)C(C(=O)Nc2cccnc2)=C(C)N3)cc1OC` (stereo unspecified), the survival was inactive: 81%. With `Cc1ccc(CNc2ncnc3c2c(-c2ccccc2)cn3-c2cccc(Cl)c2)cc1` the survival was inactive: 94%. In the case of `CCN1C(=O)c2cccc3c(S(=O)(=O)Nc4ccc(O)c(C(=O)O)c4)ccc1c23`, the survival is reported as inactive: 70%. In the case of `CC(C)(C)OC(=O)N1CCC(c2c(C(=O)N3CCc4ccccc4C3)cnn2-c2ccc(Cl)cc2)CC1`, the survival is reported as inactive: 91%. In the case of `CCOc1ccccc1C(=O)N(Cc1ccc(N(C)C)cc1)CC1CCCO1` (stereo unspecified), the survival is reported as inactive: 54%. With `CCOc1ccc2[nH]c(=O)c(CN(CCOC)C(=O)Nc3ccccc3C)cc2c1` the survival was inactive: 67%. In the case of `Cc1cc(C)cc(C(=O)N2CC(=O)Nc3ccc(C)cc3C2c2ccccc2)c1` (stereo unspecified), the survival is reported as inactive: 72%. In the case of `CCCCNC(=O)CSc1nc2cc3c(cc2c(=O)n1CCCC(=O)NCc1ccc2c(c1)OCO2)OCO3`, the survival is reported as inactive: 80%. In the case of `COc1ccc(NCc2ccccc2-c2nnc(-c3ccccc3)o2)cc1Cl`, the survival is reported as inactive: 86%. `Cc1ccc2cccc(NC(=O)c3cccc4ccccc34)c2n1` was tested, and the survival was active: -2%. `CCc1cccc2sc(N3CCN(C(=O)C4CC4)CC3)nc12` was tested, and the survival was inactive: 94%. `Cc1cc(NC(c2nnc(-c3ccccc3)o2)c2ccccc2F)ccc1Br` (stereo unspecified) was tested, and the survival was inactive: 40%. `Cc1sc2nc(SCC(=O)N(CCO)CCO)n(C3CCCCC3)c(=O)c2c1C` was tested, and the survival was inactive: 51%. In the case of `Cc1nn(C(=O)c2ccccc2F)c(C)c1S(=O)(=O)N1CCOCC1`, the survival is reported as inactive: 84%. With `COc1ccc(Nc2ncnc3c2cnn3-c2ccc(C)cc2C)cc1` the survival was inactive: 93%. For `c1ccc(NCc2ccncc2)cc1`, the survival was inactive: 83%. `Cc1ccc(CNC(=O)CSc2ncc(S(=O)(=O)c3ccc(Br)cc3)c(=O)[nH]2)cc1` was tested, and the survival was inactive: 125%. With `Nc1c(C(=O)Nc2ccccc2Cl)c2ccccn2c1C(=O)c1ccc(Cl)cc1` the survival was inactive: 80%. With `COc1ccc(NC(=O)CSc2nc3c([nH]c4ccccc43)c(=O)n2C)cc1` the survival was inactive: 74%. With `CCc1nn(CC(=O)NCCC(C)C)c(=O)c2cc3occc3n12` the survival was inactive: 125%. In the case of `CCn1c(C)c(C2N3CC4(C)CN2CC(CC)(C3)C4=O)c2ccccc21` (stereo unspecified), the survival is reported as inactive: 108%. In the case of `COc1ccc(NS(=O)(=O)c2ccc3c(c2)C(C(C)C)C(=O)N3)cc1` (stereo unspecified), the survival is reported as inactive: 71%. `Cc1ccc(CNC(=O)C(=O)NCC(c2cccs2)S(=O)(=O)c2ccc(C)cc2)cc1` (stereo unspecified) was tested, and the survival was inactive: 98%. `COC(=O)c1sccc1S(=O)(=O)N(CC(=O)NCc1ccccc1)c1ccccc1` was tested, and the survival was inactive: 65%. For `CCn1c(=O)c2cc(C(=O)N(CCCOC(C)C)Cc3ccco3)sc2c2ccccc21`, the survival was active: 8%. `O=C(Cn1nnc(-c2cccs2)n1)NC1CC1` was tested, and the survival was inactive: 96%. For `Cc1ccc(-c2sc(C(=O)Nc3ccc(Br)cc3)cc2CC(=O)O)cc1`, the survival was inactive: 49%. `Cc1cc(C)c(NC(=O)Cn2c(SCC(=O)NCc3ccccc3)nc3ccccc32)c(C)c1` was tested, and the survival was inactive: 88%. For `Nc1cnn(C2CCCO2)c(=O)n1` (stereo unspecified), the survival was inactive: 78%. With `CCOc1ccccc1NS(=O)(=O)c1c(C)nc2sccn2c1=O` the survival was inactive: 63%. With `Cc1ccc(S(=O)(=O)Nc2cccc(C)c2)cc1` the survival was inactive: 83%. `COc1ccccc1C(=O)Nc1ccc2nc(N3CCC(C)CC3)cc(C)c2c1` was tested, and the survival was active: 3%. With `CC(=O)c1cccc(NC(=O)Cn2c(=O)c(CNc3ccc(C)cc3)cc3cc4c(cc32)OCCO4)c1` the survival was inactive: 91%. In the case of `O=C(CN1CCCC1)N/N=C/c1ccc(-c2cccc(Cl)c2Cl)o1`, the survival is reported as inactive: 86%. In the case of `Cc1ccc(-n2nc3c(=O)n(CCCC(=O)NCCc4ccccc4)nc(C)c3c2C)cc1`, the survival is reported as inactive: 112%. For `CC(C)c1nc2ccc(C(=O)NCc3ccc(N(C)C)cc3)cc2o1`, the survival was inactive: 85%. With `CCOC(=O)N1CCN(c2ncnc3c2cnn3-c2ccccc2)CC1` the survival was inactive: 59%. `Cc1cccc(CCNC(=O)CCS(=O)(=O)c2cc3c(cc2Cl)NC(=O)CO3)c1` was tested, and the survival was inactive: 95%. With `COc1cccc(CNC(=O)C2CCN(S(=O)(=O)c3ccc4c(ccn4C)c3)CC2)c1` the survival was inactive: 81%. With `COc1ccc(-c2cn3cccnc3n2)cc1NC(=O)c1c(F)cccc1F` the survival was inactive: 83%. With `CSc1ccc(C2c3[nH]c4ccccc4c3CCN2C(=O)CCc2ccccc2)cc1` (stereo unspecified) the survival was inactive: 87%. `CCC(=O)NC1CCC(c2ccccc2)CC1` (stereo unspecified) was tested, and the survival was inactive: 97%. For `COc1cc(Cl)c(C)cc1NC(=O)CCn1c(=O)c2cccn2c2cccnc21`, the survival was inactive: 83%. For `Cc1ccc(N2CC(c3nnc(NC(=O)c4ccco4)s3)CC2=O)cc1Cl` (stereo unspecified), the survival was inactive: 77%. For `O=S(=O)(c1ccc(Br)cc1)c1nnn2c1nc(NC1CCCCCC1)c1sccc12`, the survival was inactive: 63%. With `CCN1CCN(C(c2cccc(F)c2)c2c(O)cc(C)n(CCOC)c2=O)CC1` (stereo unspecified) the survival was inactive: 73%. For `COc1ccc(Cl)cc1NC(=O)c1cc(S(=O)(=O)N2CCC(C)CC2)cn1C`, the survival was inactive: 83%. In the case of `CCc1nc2cccnc2n1-c1ccc(CC(=O)Nc2ccccc2Cl)cc1`, the survival is reported as inactive: 67%. In the case of `CCOc1ccc(CNC(=O)CCC(=O)N2CC3CCCN3c3ccccc32)cc1` (stereo unspecified), the survival is reported as inactive: 92%. `Cc1cccc(NC(=O)CSc2nc3c(oc4ccccc43)c(=O)n2Cc2ccco2)c1` was tested, and the survival was inactive: 61%. For `CC(C)C(=O)Nc1ccc2nc(SCC(=O)N3CCOCC3)sc2c1`, the survival was inactive: 81%. In the case of `Cc1cc(NS(=O)(=O)c2ccc3nc(-c4ccccc4)[nH]c3c2)ccc1Br`, the survival is reported as active: -2%. `CN(C)c1nc2ccc(OCCN3CCCCC3)cc2s1` was tested, and the survival was inactive: 87%. `COc1ccccc1-c1noc(CSc2nnc(Cc3ccccc3)n2-c2ccc(C)c(C)c2)n1` was tested, and the survival was inactive: 48%. In the case of `Cc1ccc(C)n1-c1nnc(N2CCC(C(=O)NCc3ccc(F)cc3)CC2)s1`, the survival is reported as inactive: 104%. In the case of `O=C(Nc1cc(Cl)ccc1Cl)c1cc(S(=O)(=O)NCCc2ccccc2)ccc1F`, the survival is reported as inactive: 128%. For `Cc1ccc(CN2COc3ccc4c(C)cc(=O)oc4c3C2)cc1`, the survival was inactive: 69%. For `Cc1nc(N2CCOCC2)c2c(C(=O)N3CCN(c4ccccc4F)CC3)c(C)oc2n1`, the survival was inactive: 101%. For `Cc1ccc(C(=O)N(Cc2ccco2)Cc2sccc2C)cc1`, the survival was inactive: 44%. With `O=C(NCc1ccc(Cl)cc1)c1cc2c(s1)-c1ccccc1SC2` the survival was inactive: 58%. In the case of `COc1ccc(-c2nc3c(c(SCC(=O)Nc4cccc(O)c4)n2)Cc2c(CO)cnc(C)c2O3)cc1`, the survival is reported as inactive: 108%. For `CC1CCc2onc(C(=O)N3CCN(c4ccccc4)CC3)c2C1` (stereo unspecified), the survival was inactive: 117%. For `O=C(COc1ccccc1F)Nc1ccccc1C(=O)OCc1cc(=O)n2nc(C3CC3)sc2n1`, the survival was inactive: 88%. `COC(=O)COc1ccc(C2C(C(=O)OC)=C(C)NC3=C2C(=O)c2ccccc23)cc1OC` (stereo unspecified) was tested, and the survival was active: 29%. For `Cn1nnnc1SCCCNCc1ccc(Cl)cc1`, the survival was inactive: 68%. In the case of `COC(=O)c1cc(NC(=O)CCc2c(C)nc3c(c(C)nn3C(C)(C)C)c2C)cc(C(=O)OC)c1`, the survival is reported as inactive: 77%. With `COc1ccc(Nc2oc(-c3ccc(COc4cccc(C)c4)o3)nc2C#N)cc1` the survival was inactive: 109%. With `COc1ccc(CCNC(=O)Cc2c(C)c3cc4c(C(C)(C)C)coc4c(C)c3oc2=O)cc1OC` the survival was inactive: 62%. With `CCN(CC)CC#CC1(O)CCCCC1` the survival was inactive: 117%. In the case of `Cc1cc(C)c2c(c1)NC(=O)C2(O)c1c[nH]c2ccccc12` (stereo unspecified), the survival is reported as inactive: 77%. In the case of `Cc1cccc(S(=O)(=O)Nc2cccc(-c3ccc(N4CCCCC4)nn3)c2)c1`, the survival is reported as inactive: 84%. `CCN(CC)C(=O)Cn1c(=O)n(-c2ccc(Cl)c(Cl)c2)c(=O)c2c(C)c(C(=O)N(CC)CC)sc21` was tested, and the survival was inactive: 83%. In the case of `COc1cccc(OCc2nnc(SCC(=O)O)o2)c1`, the survival is reported as inactive: 81%. `CCc1nnc2c(N3CCN(c4cccc(C)c4)C(C)C3)nc3ccccc3n12` (stereo unspecified) was tested, and the survival was inactive: 73%.
